From the BET-seq Pho4 binding data (Le et al. 2018)
The list shows a part of the results. These are noisy estimates, calculated here from bound and input reads.

Biological target: T1, Pho4 (S. cerevisiae) (UniProt P07270)
T1 sequence: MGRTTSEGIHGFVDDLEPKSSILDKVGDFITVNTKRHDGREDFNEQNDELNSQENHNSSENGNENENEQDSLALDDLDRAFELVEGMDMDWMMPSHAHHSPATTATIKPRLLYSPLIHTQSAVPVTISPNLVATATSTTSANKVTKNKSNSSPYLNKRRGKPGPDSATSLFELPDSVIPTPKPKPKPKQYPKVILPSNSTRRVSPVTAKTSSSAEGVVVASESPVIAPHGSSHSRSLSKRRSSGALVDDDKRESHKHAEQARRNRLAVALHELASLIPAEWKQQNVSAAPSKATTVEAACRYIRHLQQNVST
Assay: relative binding free energy (BET-seq); higher = weaker binding
Settings: reference: library average

Relative binding free energy, 0.1 kcal/mol:
GATGTCACGTGGGAAA, ATTAGCACGTGCAATG, AATGTCACGTGGTATG, TACAGCACGTGTGAGT, TCTGTCACGTGTCGTT, GGTGACACGTGTAAAG, AGTCACACGTGAGTGT

Relative binding free energy, -0.04 kcal/mol:
ATGAGCACGTGGTTTG, GGGGCCACGTGGAGGG, AGGGTCACGTGCGTGT

Relative binding free energy, -0.13 kcal/mol:
ATTAACACGTGTGTAG, ATTTGCACGTGGGAGT, CTTGGCACGTGTGTAA

Relative binding free energy, -0.08 kcal/mol:
TGGGACACGTGGTAAG, ATTGACACGTGTGTCG, TGGGACACGTGCGGGC, TGCGCCACGTGATGGG, AAGAACACGTGGAGGG, CGCTGCACGTGTTGTG

Relative binding free energy, 0.04 kcal/mol:
AGTGTCACGTGCTAAG, GGTGACACGTGTTAAG, TCGGCCACGTGTGGAG

Relative binding free energy, 0.15 kcal/mol:
TTGGTCACGTGGTGCG, AGTTACACGTGGAAAG

Relative binding free energy, 0.28 kcal/mol:
GTTAACACGTGAGATA, TTCCTCACGTGGTTAG, GTATTCACGTGTATAA

Relative binding free energy, 0.09 kcal/mol:
TTCGTCACGTGTGGCG, TTAGTCACGTGGAGTT, GGTAGCACGTGAGAAG, GGCGACACGTGGGGGA, TGAGCCACGTGAGGTA, AGTCGCACGTGTAGGC

Relative binding free energy, 0.11 kcal/mol:
CGCGTCACGTGATTGG, GAATGCACGTGCATGG, TGTTACACGTGTTAGA, TACGTCACGTGATTTG, TTTTACACGTGGTGCG

Relative binding free energy, 0.4 kcal/mol:
TGATTCACGTGAAAGT, TTGTTCACGTGATGAA

Relative binding free energy, -0.12 kcal/mol:
TGTGTCACGTGGTACA, TAGGGCACGTGCGTTC

Relative binding free energy, -0.26 kcal/mol:
TATGGCACGTGGGAAG, GCGGGCACGTGCGAGG

Relative binding free energy, -0.02 kcal/mol:
TTTGACACGTGGAGAA, AGAGTCACGTGTTGCT, TAGTACACGTGGTGTG, GGAGGCACGTGTGGTC, GGTTCCACGTGGTATA, ATGTACACGTGGTGCT, AGTCGCACGTGGAGGT, CATGTCACGTGTTGAT

Relative binding free energy, -0.01 kcal/mol:
GGGAACACGTGGGGAT, TGCGTCACGTGGTATT, ATGTCCACGTGGAGGA, TGGTCCACGTGTATGT

Relative binding free energy, 0 kcal/mol:
AGTCTCACGTGTTTAT, TGTGTCACGTGGAGCG, AAGAACACGTGTGTGT, TTTCACACGTGTGGGA

Relative binding free energy, 0.23 kcal/mol:
GGTGTCACGTGTGTAG, GTATTCACGTGGTCCG, GGCGTCACGTGAGCGG, ACGTTCACGTGAGTGT, GTCGTCACGTGTTGTA, TTGCTCACGTGTGGAG

Relative binding free energy, 0.03 kcal/mol:
CGGGGCACGTGTAGAG, TGTCGCACGTGACGGG, TTTGACACGTGTTGAA

Relative binding free energy, 0.35 kcal/mol:
GAGTTCACGTGCATTT, AAATTCACGTGAGGTA

Relative binding free energy, 0.26 kcal/mol:
AGGTTCACGTGTATGG, TGATTCACGTGATACG

Relative binding free energy, 0.05 kcal/mol:
GCATACACGTGTTGGT, ATTATCACGTGGCTTA, TATGTCACGTGTTGGC, CGTTACACGTGTTGTG

Relative binding free energy, -0.21 kcal/mol:
TAGGGCACGTGGGCAA, CAGGGCACGTGTTGCG

Relative binding free energy, 0.06 kcal/mol:
GCGGCCACGTGATGTG, TGGGGCACGTGTAGTC, TTTTGCACGTGTGATA, GTTGTCACGTGTCGAT, TTGCTCACGTGGTCTG, TGTTCCACGTGTAATT

Relative binding free energy, -0.27 kcal/mol:
TGTGCCACGTGGGCAT

Relative binding free energy, 0.02 kcal/mol:
TTGTGCACGTGGTGAA, CAGGTCACGTGGGGAT, AAGTGCACGTGTTCGT, AGTGCCACGTGTGTTG, TAATGCACGTGTTGGT, TTAGACACGTGCTTTT

Relative binding free energy, -0.17 kcal/mol:
TGGGGCACGTGGTGCT, CGTAACACGTGCGGGG, GAGGGCACGTGGGCAG

Relative binding free energy, -0.32 kcal/mol:
TCTGCCACGTGGGGTT

Relative binding free energy, 0.31 kcal/mol:
GAAGTCACGTGTAAAG, GTGTTCACGTGGCAGG

Relative binding free energy, 0.37 kcal/mol:
AAGTTCACGTGAGTTT, GGGCACACGTGAGGGA

Relative binding free energy, 0.16 kcal/mol:
GGTGGCACGTGTGGAA, CTTTTCACGTGCGGTT, GGTTGCACGTGTTGCA

Relative binding free energy, -0.15 kcal/mol:
GAGAGCACGTGTTGTA, GGTACCACGTGTGGTA

Relative binding free energy, 0.22 kcal/mol:
ACGTTCACGTGGGAGT, TTGTACACGTGATGTA, AGTCTCACGTGGAGGT, CGGGTCACGTGAGTAT, GAGGGCACGTGGAAAT

Relative binding free energy, 0.29 kcal/mol:
GGTCTCACGTGCGCGG, ATGGACACGTGAAGAG

Relative binding free energy, -0.09 kcal/mol:
TGTCGCACGTGATCGG, GGGAGCACGTGGGAGC

Relative binding free energy, 0.18 kcal/mol:
TTGAACACGTGTAAGG, ATGAGCACGTGAGTCG, GTCATCACGTGTTAGT, GTTGGCACGTGTACGC, TGGATCACGTGTTAAT, ATGATCACGTGATTGA

Relative binding free energy, -0.03 kcal/mol:
TACTGCACGTGTTGTG, GTTTGCACGTGGGACT, TTCCACACGTGGTGGT, TCTGTCACGTGGGCAG, TTGCGCACGTGTGGAT, GGCCGCACGTGCGTGT, AGAGTCACGTGGGGGC, TGGGCCACGTGGTTGG, GTGGCCACGTGTGGCA, TATTGCACGTGGAAGG

Relative binding free energy, 0.12 kcal/mol:
TTATTCACGTGCTTGT

Relative binding free energy, -0.05 kcal/mol:
GCTAGCACGTGTGGAG, CTAGACACGTGGTGTT, ATGGGCACGTGTCGGC, TAGAACACGTGGGATG, TGGGACACGTGGTAGA, TGTGGCACGTGTGGAT, AATGGCACGTGTATAG, TTATACACGTGGTTTA

Relative binding free energy, -0.1 kcal/mol:
ATTGGCACGTGCAGGG, TAATGCACGTGGTGAC, TTAAACACGTGGTTGT, GTCTCCACGTGGGGGG, CTGGGCACGTGGGTTA

Relative binding free energy, 0.21 kcal/mol:
GGTTGCACGTGATGGT, TTCAACACGTGAGGTT, TAGAGCACGTGAGTTA, AGTTTCACGTGTCGGG

Relative binding free energy, 0.3 kcal/mol:
TTGTTCACGTGGACGC

Relative binding free energy, 0.13 kcal/mol:
TATTGCACGTGTAGAA, GTTTCCACGTGGTTGC, TTTGTCACGTGGCCGG, AATTGCACGTGTGATG, GGGAACACGTGACGGT

Relative binding free energy, 0.34 kcal/mol:
ATGTTCACGTGGACGG

Relative binding free energy, -0.19 kcal/mol:
GGAAGCACGTGTGTAG

Relative binding free energy, -0.14 kcal/mol:
CGGAGCACGTGGTTGA, AAGGGCACGTGGTTTC, GTGGACACGTGGGGCC, TGGAGCACGTGTCGCT, TCATGCACGTGGTTGT

Relative binding free energy, -0.18 kcal/mol:
ACATGCACGTGGGGAT

Relative binding free energy, 0.38 kcal/mol:
AGAGTCACGTGAGGGC, GTGTTCACGTGCTCAT, ATTAACACGTGAGGCG

Relative binding free energy, -0.06 kcal/mol:
CGAGGCACGTGGTAGA, CTTTGCACGTGGAGTA, TCGGGCACGTGGTATT

Relative binding free energy, 0.2 kcal/mol:
GATATCACGTGGTGCG, CTGTTCACGTGGCTTG

Relative binding free energy, -0.16 kcal/mol:
TTGGGCACGTGTTCAA, TAGACCACGTGGGTGG, AGGCGCACGTGGTAAG

Relative binding free energy, 0.25 kcal/mol:
GTTATCACGTGTTGTG, TGGGTCACGTGAGTCT, AATGTCACGTGAGATT, ATTTTCACGTGGTCTA, TTCTACACGTGTATGA, ATTTTCACGTGCGGGG, ATCATCACGTGTTAAT

Relative binding free energy, 0.24 kcal/mol:
TAGATCACGTGTTTCG, ATCGACACGTGTCGGT

Relative binding free energy, 0.33 kcal/mol:
AGCGTCACGTGATTAG

Relative binding free energy, 0.27 kcal/mol:
TTCCTCACGTGTGGTT

Relative binding free energy, -0.2 kcal/mol:
TCGGGCACGTGTCAGG, GTAGGCACGTGGGCAC, CAATGCACGTGGGGTT

Relative binding free energy, 0.41 kcal/mol:
GGATTCACGTGTTGGT

Relative binding free energy, -0.22 kcal/mol:
TTCGGCACGTGGGGAT, AAGGGCACGTGGCGTC, AGATCCACGTGGGGGG

Relative binding free energy, -0.23 kcal/mol:
CGTGACACGTGGTGCG

Relative binding free energy, 0.08 kcal/mol:
AAGGCCACGTGATAGG, ACTATCACGTGTTTGT, CAAGTCACGTGGGATT, ATTGTCACGTGGCATA, TTAAACACGTGATTAG

Relative binding free energy, 0.14 kcal/mol:
CGAATCACGTGGTGGG, TCGGTCACGTGTTGCT, TTTGCCACGTGAATTG, TAGGGCACGTGACGAG, ATTGTCACGTGTTCGG, ACGGACACGTGTGTGA, GTTTGCACGTGTTGCA, CTTATCACGTGTTGGG

Relative binding free energy, 0.42 kcal/mol:
CGTATCACGTGAGAGT, GAATTCACGTGGAAGG, GAATTCACGTGCATTT

Relative binding free energy, 0.19 kcal/mol:
GTACACACGTGTGGCG

Relative binding free energy, 0.01 kcal/mol:
GTGACCACGTGTGGAG, TCATACACGTGGGCTT, TGTCGCACGTGAGTGG

Relative binding free energy, -0.24 kcal/mol:
CTAAGCACGTGTTGTG, ATGGCCACGTGGTTGT

Relative binding free energy, 0.07 kcal/mol:
ATCGGCACGTGGAGGC, ATGGTCACGTGTCAAG, GGTGTCACGTGGCAGC, ATAGTCACGTGGTTCT

Relative binding free energy, -0.11 kcal/mol:
TCGGACACGTGGGGCT, TTGACCACGTGGTTGG

Relative binding free energy, -0.07 kcal/mol:
ACTAGCACGTGTGGTT, GTTTGCACGTGTTTTC, CCGTGCACGTGGTAGG, TTGGACACGTGGGGTG, CTAGACACGTGTGTGG, CGGGTCACGTGGTGCT, GGGAGCACGTGCGGTT, AGTGGCACGTGTGACG, GACGGCACGTGGGAGG

Relative binding free energy, -0.3 kcal/mol:
TTTGGCACGTGGTGCA
